{"source": "PubChem BioAssay AID504706", "about": "(National Center for Advancing Translational Sciences (NCATS), 2011)", "note": "In all, about 320,000 compounds went through this assay and about 200 (0.062%) were called active. Inconclusive means that the source gave no clear call. Such entries were picked first, then a sample of the others. Calls come from the whole dose curve; as a rule, active = well fitted activation curve with a large enough effect; inconclusive = small, poorly fitted or top-dose-only effect; inactive = no such curve, though single readings can be large or run the other way. No potency is given beside an inconclusive call; the fits are too rough. Potency is the fitted concentration of half-maximal effect; tags give direction and shape of the fitted curve.", "data": [{"assay": "qHTS assay for re-activators of p53 using a Luc reporter; note: nearly all actives have a fitted effect of over 45% in size", "details": "H1299 p53-A138V BP100-luciferase reporter, luminescence, 24 h; series mostly up to 92.2 µM", "in_short": "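p53-null H1299 cells stably carrying temperature-sensitive p53-A138V and a BP100-luciferase reporter were pinned with compounds (4-point, 1:5 series) and held 24 hrs at 37 deg C. Luminescence was read 10 min after detection reagent.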", "values": [{"smiles": "COc1cccc(C(=O)Nc2ccc(C)cc2)c1", "Potency": "inconclusive [activator, partial curve, poor fit]"}, {"smiles": "S=C(c1ccc(-c2ccc(Cl)c(Cl)c2)o1)N1CCOCC1", "Potency": "inconclusive [activator, full curve, poor fit]"}, {"smiles": "Cc1ccc(CNC(=O)CSCc2ccccc2F)cc1", "Potency": "inconclusive [activator, single point]"}, {"smiles": "O=C(c1ccc([N+](=O)[O-])o1)N1CCCCCC1", "Potency": "inconclusive [activator, partial curve, poor fit]"}, {"smiles": "c1ccc(CSc2ncn(-c3ccccc3)n2)cc1", "Potency": "inconclusive [activator, full curve, poor fit]"}, {"smiles": "CC1CN(c2cc(=O)n(-c3ccccc3)c(=O)[nH]2)CC(C)O1", "note": "(stereo not drawn)", "Potency": "inconclusive [activator, single point]"}, {"smiles": "Cc1ccccc1NC(=S)NCc1cccs1", "Potency": "inactive"}, {"smiles": "Cc1cnc(C(=O)Nc2ccc(F)c(F)c2)cn1", "Potency": "inconclusive [activator, single point]"}, {"smiles": "COc1ccccc1C(=O)Nc1ccc(C(=O)c2ccccc2)cc1", "Potency": "inconclusive [activator, single point]"}, {"smiles": "c1cc2c(cc1Nc1nc(-c3ccc4c(c3)OCO4)cs1)OCCO2", "Potency": "inconclusive [activator, partial curve, poor fit]"}, {"smiles": "COc1ccc(C(=O)Nc2ccnc(-c3cccnc3)n2)cc1", "Potency": "inconclusive [activator, partial curve, poor fit]"}, {"smiles": "CCCCOc1ccc(C(=O)Nc2ccc(S(=O)(=O)Nc3onc(C)c3C)cc2)cc1", "Potency": "inactive"}, {"smiles": "Oc1c(C(Nc2nccs2)c2ccc(C(F)(F)F)cc2)ccc2cccnc12", "note": "(stereo not drawn)", "Potency": "inconclusive [activator, full curve, poor fit]"}, {"smiles": "COc1ccc(NC(=O)/C=C/c2ccc(OC(F)F)cc2)cn1", "Potency": "inactive"}, {"smiles": "CN(c1cccc(NC(=O)COc2ccc(Cl)cc2Cl)c1)S(C)(=O)=O", "Potency": "inconclusive [activator, partial curve, poor fit]"}, {"smiles": "C=C1CCC[C@]2(C)C[C@H]3OC(=O)C(CN(C)CC(OC)OC)[C@H]3CC12", "note": "(stereo partly drawn)", "Potency": "inconclusive [activator, single point]"}, {"smiles": "O=C(NCC1CCCO1)c1ccc2nc(N3CCCCC3)sc2c1", "note": "(stereo not drawn)", "Potency": "inconclusive [activator, partial curve, poor fit]"}, {"smiles": "CN(c1ccc(C(=O)NCCSCc2ccco2)cc1)S(C)(=O)=O", "Potency": "inconclusive [activator, partial curve, poor fit]"}]}]}
